Data reported in the supplement of paper PMC11741623.
Some of the results follow. Interaction screen of human proteins with wild-type SARS-CoV-2 proteins by split-DHFR complementation in yeast, 1 µg/mL methotrexate. Value = fitness of the pair (three or more lineages) minus that of the viral protein without a human partner, on a scale set by negative (0) and fused positive (1) controls, mean of up to three cultures; higher = more likely to interact. Active = false discovery rate below 0.05 (one-sided t-test) in at least one culture. Nearly all pairs are not hits, and differences among them are mostly noise (correlation between cultures about 0.3); most hits were seen in one culture only. Human sequences are the Swiss-Prot entries looked up by gene name; the clone may be another isoform. NSP2 values were corrected by the authors for a growth advantage. Listed are human proteins with a hit and a random twelfth of the others.

Columns and labels:
Assay in all cases: yeast fitness gain over the viral ORF with no human partner (scaled fitness); higher = more likely to interact
[1] = target: SARS-CoV-2 E
Experimental: (§1)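 Split mouse DHFR complementation in pooled diploid yeast: human ORFeome clones carry one fragment and viral ORFs the other; barcoded lineages compete in 1 µg/mL methotrexate and fitness is read by barcode sequencing in up to three cultures.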

[2] = target: SARS-CoV-2 M
Experimental: as §1

[3] = target: SARS-CoV-2 N
Experimental: as §1

[4] = target: SARS-CoV-2 NSP1
Experimental: as §1

[5] = target: SARS-CoV-2 NSP10
Experimental: as §1

[6] = target: SARS-CoV-2 NSP12
Experimental: as §1

[7] = target: SARS-CoV-2 NSP13
Experimental: as §1

[8] = target: SARS-CoV-2 NSP14
Experimental: as §1

[9] = target: SARS-CoV-2 NSP16
Experimental: as §1

[10] = target: SARS-CoV-2 NSP2
Experimental: as §1

[11] = target: SARS-CoV-2 NSP4
Experimental: as §1

[12] = target: SARS-CoV-2 NSP5
Experimental: as §1

[13] = target: SARS-CoV-2 NSP6
Experimental: as §1

[14] = target: SARS-CoV-2 NSP7
Experimental: as §1

[15] = target: SARS-CoV-2 NSP9
Experimental: as §1

[16] = target: SARS-CoV-2 ORF10
Experimental: as §1

[17] = target: SARS-CoV-2 ORF3A
Experimental: as §1

[18] = target: SARS-CoV-2 ORF3B
Experimental: as §1

[19] = target: SARS-CoV-2 ORF6
Experimental: as §1

[20] = target: SARS-CoV-2 ORF7A
Experimental: as §1

[21] = target: SARS-CoV-2 ORF7B
Experimental: as §1

[22] = target: SARS-CoV-2 ORF8
Experimental: as §1

[23] = target: SARS-CoV-2 ORF9B
Experimental: as §1

[24] = target: SARS-CoV-2 ORF9Bwu (the 73-codon ORF)
Experimental: as §1

[25] = target: SARS-CoV-2 S
Experimental: as §1

[26] = target: SARS-CoV-2 NSP15
Experimental: as §1

[27] = target: SARS-CoV-2 NSP8
Experimental: as §1

Measured: yeast fitness gain

B1: UBOX5, O94941 (protein)
chain: MVINLCLPQFRPRIHCNKISADGYEVENLISEDLTKRSHGFRTEYFIKPPVYVTVSFPFNVEICRINIDLTAGGGQNVTGLEMYTSASSSRVSWNTPQCRTLGPAEPSVPDKEAFTLVGKVLLKNQSQVVFSHRGFKARPPFGAMEATLPSPAVVAQELWNKGALSLSHVAHLRICITHVTGGGIPCIKRLEVWGQPAKTCSQEVIDSILLVTSENLPQDVALQAPALPMESDCDPGDQPESQQAPSSLQKLAEIIQDVPEEFLDPITLEIMPCPMLLPSGKVIDQSTLEKCNRSEATWGRVPSDPFTGVAFTPHSQPLPHPSLKARIDHFLLQHSIPGCHLLGRAQTALAVIPSSIVLPSQKRKIEQAEHVPDSNFGVNASCFSATSPLVLPTTSEHTAKKMKATNEPSLTHMDCSTGPLSHEQKLSQSLEIALASTLGSMPSFTARLTRGQLQHLGTRGSNTSWRPGTGSEQPGSILGPECASCKRVFSPYFKKEPVYQLPCGHLLCRPCLGEKQRSLPMTCTACQRPVASQDVLRVHF
inactive: [1] -0.0032 | [2] 0.0553 | [3] -0.0504 | [4] 0.028 | [5] 0.0371 | [6] 0.00996 | [7] -0.0403 | [8] -0.0616 | [9] 0.131 | [10] -0.143 | [11] -0.0988 | [12] -0.0203 | [13] 0.127 | [14] -0.0103 | [15] -0.0629 | [16] 0.0175 | [17] -0.0523 | [18] -0.00645 | [19] 0.013 | [20] 0.0656 | [21] -0.0493 | [22] -0.045 | [23] -0.0308 | [24] 0.0439 | [25] -0.0433

B2: ABHD16A, O95870 (protein)
chain: MAKLLSCVLGPRLYKIYRERDSERAPASVPETPTAVTAPHSSSWDTYYQPRALEKHADSILALASVFWSISYYSSPFAFFYLYRKGYLSLSKVVPFSHYAGTLLLLLAGVACLRGIGRWTNPQYRQFITILEATHRNQSSENKRQLANYNFDFRSWPVDFHWEEPSSRKESRGGPSRRGVALLRPEPLHRGTADTLLNRVKKLPCQITSYLVAHTLGRRMLYPGSVYLLQKALMPVLLQGQARLVEECNGRRAKLLACDGNEIDTMFVDRRGTAEPQGQKLVICCEGNAGFYEVGCVSTPLEAGYSVLGWNHPGFAGSTGVPFPQNEANAMDVVVQFAIHRLGFQPQDIIIYAWSIGGFTATWAAMSYPDVSAMILDASFDDLVPLALKVMPDSWRGLVTRTVRQHLNLNNAEQLCRYQGPVLLIRRTKDEIITTTVPEDIMSNRGNDLLLKLLQHRYPRVMAEEGLRVVRQWLEASSQLEEASIYSRWEVEEDWCLSVLRSYQAEHGPDFPWSVGEDMSADGRRQLALFLARKHLHNFEATHCTPLPAQNFQMPWHL
active: [19] 0.259
inactive: [1] 0.323 | [2] -0.0189 | [3] 0.0436 | [4] 0.0405 | [5] 0.0134 | [6] -0.0175 | [7] -0.0156 | [26] 0.0809 | [9] -0.0676 | [10] -0.12 | [11] 0.237 | [12] 0.0496 | [13] 0.0339 | [14] 0.0277 | [27] 0.0121 | [15] 0.0194 | [16] -0.0488 | [17] 0.00201 | [18] 0.0205 | [20] 0.0494 | [21] 0.0921 | [22] -0.00612 | [23] 0.0563 | [24] 0.0584 | [25] 0.035

B3: PMEPA1, Q969W9 (protein)
chain: MHRLMGVNSTAAAAAGQPNVSCTCNCKRSLFQSMEITELEFVQIIIIVVVMMVMVVVITCLLSHYKLSARSFISRHSQGRRREDALSSEGCLWPSESTVSGNGIPEPQVYAPPRPTDRLAVPPFAQRERFHRFQPTYPYLQHEIDLPPTISLSDGEEPPPYQGPCTLQLRDPEQQLELNRESVRAPPNRTIFDSDLMDSARLGGPCPPSSNSGISATCYGSGGRMEGPPPTYSEVIGHYPGSSFQHQQSSGPPSLLEGTRLHHTHIAPLESAAIWSKEKDKQKGHPL
inactive: [1] 0.0205 | [2] -0.0265 | [3] -0.0509 | [4] 0.0394 | [5] -0.0094 | [6] 0.00436 | [7] 0.00905 | [8] -0.453 | [26] 0.0175 | [9] 0.0408 | [10] -0.146 | [11] -0.0223 | [12] 0.0623 | [13] 0.0336 | [14] 0.00545 | [27] 0.0249 | [15] 0.0425 | [16] -0.00392 | [17] 0.0351 | [18] 0.0401 | [19] 0.0379 | [20] 0.0321 | [21] -0.00614 | [22] 0.0455 | [23] -0.0189 | [24] 0.0177 | [25] -0.0308

B4: RNF8, O76064 (protein)
chain: MGEPGFFVTGDRAGGRSWCLRRVGMSAGWLLLEDGCEVTVGRGFGVTYQLVSKICPLMISRNHCVLKQNPEGQWTIMDNKSLNGVWLNRARLEPLRVYSIHQGDYIQLGVPLENKENAEYEYEVTEEDWETIYPCLSPKNDQMIEKNKELRTKRKFSLDELAGPGAEGPSNLKSKINKVSCESGQPVKSQGKGEVASTPSDNLDPKLTALEPSKTTGAPIYPGFPKVTEVHHEQKASNSSASQRSLQMFKVTMSRILRLKIQMQEKHEAVMNVKKQTQKGNSKKVVQMEQELQDLQSQLCAEQAQQQARVEQLEKTFQEEEQHLQGLEIAQGEKDLKQQLAQALQEHWALMEELNRSKKDFEAIIQAKNKELEQTKEEKEKMQAQKEEVLSHMNDVLENELQCIICSEYFIEAVTLNCAHSFCSYCINEWMKRKIECPICRKDIKSKTYSLVLDNCINKMVNNLSSEVKERRIVLIRERKAKRLF
inactive: [1] -0.0279 | [2] 0.0736 | [3] -0.0985 | [4] -0.0818 | [5] -0.017 | [6] -0.0751 | [7] -0.0795 | [8] -0.453 | [26] 0.0871 | [9] 0.00789 | [10] -0.155 | [12] -0.00676 | [13] 0.0314 | [14] 0.0795 | [27] -0.0107 | [15] 0.0103 | [16] -0.0101 | [17] 0.0656 | [18] -0.0626 | [19] 0.019 | [20] -0.025 | [21] 0.00347 | [22] 0.00598 | [23] -0.000426 | [24] -0.0394 | [25] 0.0582
